The results in this text go back to publication PMC6212790.

Some of the results follow. At the low end of the ranking the order means little.

In the experiment the target is T1, GST-Rok (full length) (UniProt O34857).
T1 sequence: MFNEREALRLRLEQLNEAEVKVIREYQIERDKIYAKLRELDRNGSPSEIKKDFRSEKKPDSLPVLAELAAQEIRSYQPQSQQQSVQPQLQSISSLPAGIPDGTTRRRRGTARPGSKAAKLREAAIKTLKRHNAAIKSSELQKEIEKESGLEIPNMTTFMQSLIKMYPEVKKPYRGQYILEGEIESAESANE
The experiment is described as follows: protein binding microarray.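 Also: rank score from −0.5 (least bound) to 0.5 (best bound).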 Conditions: Rok is a gene silencer of Bacillus subtilis; high values mean tight binding; most listed sequences are background and not binding sites; double strand, one strand shown.
In turn, GATGGTCA displayed a binding signal of -0.126 E-score. With ACTAGCTC, the binding signal was determined as 0.134 E-score. Then TGTTGAAA, with 0.111 E-score. With GCAGAGCC the figure was -0.292 E-score. With CTCCTTCC the figure was -0.183 E-score; with ATAACCCG, -0.0742 E-score. Sequence GTGCTCCA returned a binding signal of -0.203 E-score.

CACGATTA showed a binding signal of 0.0292 E-score.

With CTCCGTAC, the binding signal is -0.139 E-score. Then GAACCGGC, with -0.0826 E-score; and ACTAAGCT, with 0.198 E-score. With AACACTAC the figure was 0.166 E-score; with CTAGCTCC, -0.0709 E-score; with CATCCAGG, -0.152 E-score. With CGCTCCAA the figure was -0.252 E-score. In the case of ACGAACCT, the binding signal is -0.0668 E-score. Then GCCCCCCC, with -0.341 E-score. With ACCCAGAT the figure was 0.0718 E-score; with AGTTGTAG, 0.274 E-score.

For the sequence ACCGCAGC, the binding signal is -0.0419 E-score. With ACTGAGCG the figure was 0.116 E-score; with AAGAGGTC, -0.00652 E-score; with AAGCTGGA, -0.134 E-score. With AACTGGAA the figure was -0.0261 E-score; with ATCCGAAA, -0.0355 E-score; with AGGATATC, 0.0246 E-score. With AACACATT the figure was 0.151 E-score; with GCGCATAA, 0.183 E-score; with CAATTGAA, 0.101 E-score. The sequence CCATCTCC registered a binding signal of -0.168 E-score. Then ATGTAGAC, with 0.257 E-score. Take CAGGGCAG: the binding signal was -0.423 E-score. With AGAGGTAT the figure was 0.00833 E-score; with CGCCTCCA, -0.0635 E-score; with GAACACCA, -0.0539 E-score.

Take GCTGGCCA: the binding signal is -0.332 E-score. With ATACAACA the figure was 0.27 E-score; with CGCGATAG, 0.145 E-score; with AAGATGTG, 0.000255 E-score. With CGTGGATA the figure was -0.0193 E-score; with AAGGGGTG, -0.386 E-score; with TATTGGGA, -0.172 E-score. TACATGCA had a binding signal of 0.223 E-score. Then CTGTTCGA, with 0.122 E-score; and GATAAACA, with 0.115 E-score. Then AGTTCCAG, with 0.115 E-score.

As for AAGAACGA, the binding signal came to 0.135 E-score. With CCATTTTA the figure was 0.153 E-score; with AAACGCCC, -0.192 E-score. With CCTGATTC the figure was 0.0458 E-score; with GAACACAA, 0.00185 E-score; with CATCAGCG, 0.0251 E-score. With TCCGGCAA the figure was -0.141 E-score. For the sequence AAGACCCA, the binding signal was -0.047 E-score. The sequence CGACCCCG returned a binding signal of -0.371 E-score. Then CTGTAACC, with -0.068 E-score.

The sequence ATCCAGCA showed a binding signal of -0.0227 E-score. Sequence GAGAAGCC displayed a binding signal of -0.225 E-score.

With GCGGCCGA, the binding signal is -0.36 E-score. With CTCGGAAG the figure was -0.103 E-score; with AAGTCCCG, -0.14 E-score; with AAACTTAA, 0.166 E-score. Then CAAGGGAG, with -0.257 E-score; and AAACAAGA, with -0.00313 E-score; and CGAAACAC, with 0.0369 E-score. The sequence CACTAAAA came in with a binding signal of 0.293 E-score.

In turn, CTCATATC registered a binding signal of 0.0566 E-score. Then CGCCAAAC, with -0.151 E-score. Then TCCGTCAA, with 0.026 E-score; and GTCGTGAA, with -0.0555 E-score.

For ACGTCCTG, the binding signal was -0.113 E-score.

AATGTTAC: the binding signal was found to be 0.156 E-score. Then CAAGGAAA, with -0.213 E-score; and CTTGATCC, with -0.0954 E-score; and ACTTGCGA, with -0.0722 E-score. With CTAAGTAA the figure was 0.279 E-score; with ATTTGGTA, 0.273 E-score. With CCTGGACC, the binding signal is -0.261 E-score. With CAAGGGGA the figure was -0.407 E-score. With GGAGGCTA the figure was -0.158 E-score; with GACGCTTA, -0.0271 E-score; with AAATTCAT, 0.128 E-score. CTCGGAGC gave a binding signal of -0.168 E-score. Then CCGCTGAA, with -0.065 E-score; and AATATGCG, with 0.178 E-score. With AAGGCCTG the figure was -0.136 E-score. With GAGTGCAA the figure was -0.0314 E-score; with AATAAGCT, -0.0481 E-score; with ACGGGAGA, -0.144 E-score.

In turn, GCCCTCGA had a binding signal of -0.397 E-score. Then GGCCAACA, with -0.0856 E-score. Turning to CCAAACCC, the binding signal was -0.258 E-score. Then AAAGATGA, with 0.00175 E-score. With CAACGCCC the figure was -0.181 E-score. With CGTTGGTC the figure was -0.239 E-score; with CGGGACCA, -0.274 E-score.

In the case of GCAATCCC, the binding signal was -0.159 E-score. For the sequence AGTGGCGG, the binding signal was -0.184 E-score. With ACCCTAGC the figure was -0.0137 E-score; with AGACGACG, -0.172 E-score; with CTCGTCAG, -0.0781 E-score. With CTTGGCCA the figure was -0.187 E-score; with AAGGAGAA, -0.0852 E-score; with ACAACCCA, -0.102 E-score. With GTAACTGA the figure was 0.142 E-score. Sequence ACGACGCG returned a binding signal of -0.0374 E-score. AAGTCGCA showed a binding signal of -0.0805 E-score. With CTAGCGTA the figure was 0.25 E-score; with ATTCACCG, -0.149 E-score. In the case of ACTATAGT, the binding signal was determined as 0.409 E-score. Then GTCTAATA, with 0.153 E-score; and CCAACGTC, with -0.115 E-score. With CAACACTC the figure was -0.0858 E-score. Then ATTTGTTA, with 0.228 E-score. The sequence AACGTAGG came in with a binding signal of -0.0335 E-score. Then AGTATAAA, with 0.278 E-score; and ATGTCCTC, with -0.197 E-score; and CACTCGCG, with -0.218 E-score. With CTCAAGAC the figure was -0.118 E-score; with AATGGTAT, 0.309 E-score. GCAGGGCA came in with a binding signal of -0.249 E-score. Then CCTCAGAC, with -0.248 E-score; and AACAGCTT, with 0.12 E-score; and TAGTCGAA, with 0.195 E-score. Then TCCCACCA, with -0.251 E-score. Then CGGAGGGC, with -0.363 E-score; and TGAGAACA, with 0.000946 E-score.

Sequence ATATATAT yielded a binding signal of 0.471 E-score. With AATGGCCC the figure was 0.0524 E-score. Then ACGGGGCT, with -0.226 E-score. Then ACATCCGT, with 0.00576 E-score; and CACTATAC, with 0.0744 E-score. Take CCACGCCG: the binding signal is -0.307 E-score. With CGGGGCCA the figure was -0.152 E-score. Then AGGTGAAT, with -0.0282 E-score; and ATGGCTTG, with -0.172 E-score. Then GGGTGTGA, with -0.3 E-score; and AATAGTCT, with 0.0809 E-score. Turning to ACAAGTCA, the binding signal is 0.0527 E-score. With GGGTTAAA the figure was 0.118 E-score. Then ACGCTCAC, with -0.0916 E-score; and GGACGGGA, with -0.331 E-score; and CGTCAAGC, with -0.133 E-score.

CATGCACG had a binding signal of -0.0508 E-score. With AAATCGTA the figure was 0.166 E-score; with TTTCCAAA, 0.161 E-score. With ATGTACGA the figure was 0.296 E-score. With CCTTGCAC the figure was -0.137 E-score; with CCACCTCA, -0.105 E-score; with CGAATTTA, 0.2 E-score.

For the sequence ACTAGGTA, the binding signal was determined as 0.289 E-score. In turn, TATACATA had a binding signal of 0.37 E-score.

For the sequence GACCAGGA, the binding signal is -0.349 E-score. Then TACTTGGA, with 0.0443 E-score. With ACCGACCT the figure was -0.0903 E-score; with AGGTGATC, -0.115 E-score; with ACACCGGA, -0.0014 E-score. With ACAAAGGG the figure was -0.00131 E-score; with AGCGCGAT, 0.127 E-score; with AAGATGCC, -0.0604 E-score. AAAAGACC gave a binding signal of -0.151 E-score. In turn, CGAGTGCA registered a binding signal of -0.154 E-score. Take CAACATGC: the binding signal was -0.0603 E-score.

TCTCATCA had a binding signal of 0.0785 E-score.

GTACATTA came in with a binding signal of 0.262 E-score. As for ATTCATTA, the binding signal turned out to be 0.157 E-score. Then ACGATAGG, with 0.0845 E-score; and ACGCTATG, with 0.0647 E-score; and ATGGAACA, with -0.00856 E-score.

Sequence ACGCACCA gave a binding signal of -0.218 E-score.

Turning to ACTAATAA, the binding signal was 0.293 E-score.

As to CGTTCATA, the binding signal was determined as 0.091 E-score.
